Assay results published in PMC6453939.
Like-named read-outs stand apart in the source and are kept apart here. Results are given in words; binding and its absence hold for the method and conditions named. For some assays here: In cells and extracts the contact can be indirect. Some binding calls cover weakened binding; strength is not graded here.

By UniProt entry, the sequences of proteins in these tests, tags left out. Where a name states a change or a piece, a line headed by the entry shows the natural chain unless it says otherwise. Chains listed by the source or under a name are the forms on record and can include a tag or linker.
UniProt Q12846: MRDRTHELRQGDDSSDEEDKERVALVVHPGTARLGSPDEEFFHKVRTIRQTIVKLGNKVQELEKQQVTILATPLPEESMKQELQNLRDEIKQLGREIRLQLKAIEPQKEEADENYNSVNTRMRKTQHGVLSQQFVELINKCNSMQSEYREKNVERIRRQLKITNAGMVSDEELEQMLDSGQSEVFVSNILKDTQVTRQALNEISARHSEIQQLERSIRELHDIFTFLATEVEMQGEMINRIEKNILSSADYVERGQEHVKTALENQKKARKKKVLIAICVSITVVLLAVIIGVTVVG
Vps13B (human (endogenous in HeLa)) (Q7Z7G8-2, form named): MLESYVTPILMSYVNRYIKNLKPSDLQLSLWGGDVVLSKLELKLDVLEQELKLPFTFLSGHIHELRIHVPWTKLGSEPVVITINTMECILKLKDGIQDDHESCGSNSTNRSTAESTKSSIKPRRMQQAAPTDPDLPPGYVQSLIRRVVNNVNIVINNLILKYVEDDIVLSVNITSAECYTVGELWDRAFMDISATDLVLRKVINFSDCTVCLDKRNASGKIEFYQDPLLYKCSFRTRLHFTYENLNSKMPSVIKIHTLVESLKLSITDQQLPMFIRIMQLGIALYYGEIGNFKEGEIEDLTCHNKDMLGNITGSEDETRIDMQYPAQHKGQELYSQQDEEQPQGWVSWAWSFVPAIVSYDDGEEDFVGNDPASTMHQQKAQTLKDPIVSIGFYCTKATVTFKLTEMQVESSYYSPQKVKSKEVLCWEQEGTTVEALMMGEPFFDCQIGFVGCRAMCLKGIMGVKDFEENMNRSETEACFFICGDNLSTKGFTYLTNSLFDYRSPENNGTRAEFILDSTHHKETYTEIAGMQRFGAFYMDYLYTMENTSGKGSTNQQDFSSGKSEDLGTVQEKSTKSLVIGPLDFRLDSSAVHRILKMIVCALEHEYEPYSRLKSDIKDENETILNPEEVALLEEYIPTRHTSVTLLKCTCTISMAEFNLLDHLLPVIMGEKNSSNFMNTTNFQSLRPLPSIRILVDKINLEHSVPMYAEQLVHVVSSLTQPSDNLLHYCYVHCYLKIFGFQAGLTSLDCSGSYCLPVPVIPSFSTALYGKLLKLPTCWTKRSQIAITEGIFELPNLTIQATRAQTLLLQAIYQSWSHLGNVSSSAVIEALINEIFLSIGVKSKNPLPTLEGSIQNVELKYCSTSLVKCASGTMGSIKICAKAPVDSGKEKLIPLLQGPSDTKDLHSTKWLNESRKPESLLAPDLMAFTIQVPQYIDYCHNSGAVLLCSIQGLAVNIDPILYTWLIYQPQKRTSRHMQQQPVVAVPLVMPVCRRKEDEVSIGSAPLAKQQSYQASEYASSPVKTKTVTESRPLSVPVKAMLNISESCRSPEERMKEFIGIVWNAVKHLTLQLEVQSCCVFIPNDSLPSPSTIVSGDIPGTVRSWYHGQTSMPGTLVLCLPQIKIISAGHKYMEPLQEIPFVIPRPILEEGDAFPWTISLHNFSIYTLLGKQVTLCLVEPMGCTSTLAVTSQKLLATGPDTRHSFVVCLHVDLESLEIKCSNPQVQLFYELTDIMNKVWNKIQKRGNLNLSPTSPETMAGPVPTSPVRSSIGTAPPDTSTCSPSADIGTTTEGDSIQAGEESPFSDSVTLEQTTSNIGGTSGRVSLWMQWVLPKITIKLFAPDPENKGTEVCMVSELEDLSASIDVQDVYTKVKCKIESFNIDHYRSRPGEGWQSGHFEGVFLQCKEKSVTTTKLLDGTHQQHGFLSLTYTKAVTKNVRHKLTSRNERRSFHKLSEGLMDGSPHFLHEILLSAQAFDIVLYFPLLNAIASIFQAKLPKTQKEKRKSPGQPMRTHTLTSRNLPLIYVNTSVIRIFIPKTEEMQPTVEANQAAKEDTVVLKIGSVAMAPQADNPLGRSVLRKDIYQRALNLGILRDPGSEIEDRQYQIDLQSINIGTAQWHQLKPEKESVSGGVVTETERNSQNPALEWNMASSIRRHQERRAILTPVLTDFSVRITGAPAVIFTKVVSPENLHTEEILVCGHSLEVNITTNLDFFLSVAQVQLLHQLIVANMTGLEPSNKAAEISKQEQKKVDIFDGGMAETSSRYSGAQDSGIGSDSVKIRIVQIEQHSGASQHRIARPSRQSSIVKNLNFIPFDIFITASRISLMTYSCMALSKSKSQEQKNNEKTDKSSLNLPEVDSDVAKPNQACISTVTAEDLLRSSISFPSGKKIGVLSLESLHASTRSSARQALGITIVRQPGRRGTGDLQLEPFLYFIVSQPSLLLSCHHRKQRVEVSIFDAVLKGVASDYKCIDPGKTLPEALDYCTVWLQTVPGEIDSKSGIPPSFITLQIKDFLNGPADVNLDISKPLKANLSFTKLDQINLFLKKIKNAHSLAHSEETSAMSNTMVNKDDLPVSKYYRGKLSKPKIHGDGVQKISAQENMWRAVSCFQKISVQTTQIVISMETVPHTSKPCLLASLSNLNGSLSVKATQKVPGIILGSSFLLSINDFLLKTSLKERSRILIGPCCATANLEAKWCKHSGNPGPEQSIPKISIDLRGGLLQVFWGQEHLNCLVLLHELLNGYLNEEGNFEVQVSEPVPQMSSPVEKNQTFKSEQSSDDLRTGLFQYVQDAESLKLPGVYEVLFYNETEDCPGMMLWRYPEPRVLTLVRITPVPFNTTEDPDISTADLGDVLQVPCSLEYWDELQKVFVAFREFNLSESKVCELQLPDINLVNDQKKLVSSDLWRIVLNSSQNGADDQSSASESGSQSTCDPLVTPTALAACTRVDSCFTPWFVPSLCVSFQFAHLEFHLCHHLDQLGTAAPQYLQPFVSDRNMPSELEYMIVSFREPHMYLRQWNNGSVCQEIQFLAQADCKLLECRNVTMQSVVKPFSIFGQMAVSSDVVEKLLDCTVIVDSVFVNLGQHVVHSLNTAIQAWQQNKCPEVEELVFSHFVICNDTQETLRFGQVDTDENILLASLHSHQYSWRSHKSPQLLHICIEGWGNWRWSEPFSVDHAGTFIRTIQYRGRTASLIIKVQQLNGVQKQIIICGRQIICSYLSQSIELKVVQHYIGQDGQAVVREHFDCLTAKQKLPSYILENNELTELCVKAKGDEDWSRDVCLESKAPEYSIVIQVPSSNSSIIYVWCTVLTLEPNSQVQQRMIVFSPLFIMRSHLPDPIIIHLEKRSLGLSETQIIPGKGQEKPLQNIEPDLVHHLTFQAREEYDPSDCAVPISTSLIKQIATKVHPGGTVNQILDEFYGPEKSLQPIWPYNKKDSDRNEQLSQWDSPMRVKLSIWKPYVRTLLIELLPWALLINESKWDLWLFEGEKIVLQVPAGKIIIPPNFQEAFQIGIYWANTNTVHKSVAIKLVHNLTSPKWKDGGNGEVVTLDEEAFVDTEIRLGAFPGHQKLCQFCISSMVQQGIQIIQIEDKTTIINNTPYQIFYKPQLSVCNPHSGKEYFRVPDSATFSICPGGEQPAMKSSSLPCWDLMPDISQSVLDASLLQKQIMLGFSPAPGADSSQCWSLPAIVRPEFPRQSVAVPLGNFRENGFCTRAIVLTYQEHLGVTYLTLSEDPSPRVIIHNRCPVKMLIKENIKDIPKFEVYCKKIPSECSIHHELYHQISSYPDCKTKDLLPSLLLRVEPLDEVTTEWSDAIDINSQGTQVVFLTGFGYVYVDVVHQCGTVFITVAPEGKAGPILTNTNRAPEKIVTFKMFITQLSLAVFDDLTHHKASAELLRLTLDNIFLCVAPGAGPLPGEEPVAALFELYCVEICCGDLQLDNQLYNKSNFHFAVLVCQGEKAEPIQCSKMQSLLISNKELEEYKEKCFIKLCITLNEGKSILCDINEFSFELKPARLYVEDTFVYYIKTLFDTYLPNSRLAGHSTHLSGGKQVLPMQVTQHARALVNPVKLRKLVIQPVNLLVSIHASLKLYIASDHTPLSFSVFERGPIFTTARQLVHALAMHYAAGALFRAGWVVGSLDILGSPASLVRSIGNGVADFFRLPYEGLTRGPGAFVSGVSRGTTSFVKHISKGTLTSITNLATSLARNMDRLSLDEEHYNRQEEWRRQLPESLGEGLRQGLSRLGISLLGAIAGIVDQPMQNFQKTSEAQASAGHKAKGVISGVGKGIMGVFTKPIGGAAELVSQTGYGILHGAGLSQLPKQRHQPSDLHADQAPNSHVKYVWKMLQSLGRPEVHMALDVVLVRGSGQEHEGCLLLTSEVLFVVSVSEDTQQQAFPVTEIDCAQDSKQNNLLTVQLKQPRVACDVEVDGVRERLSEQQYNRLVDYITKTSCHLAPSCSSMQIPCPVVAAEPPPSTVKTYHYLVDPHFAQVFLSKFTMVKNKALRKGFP
UniProt Q15075: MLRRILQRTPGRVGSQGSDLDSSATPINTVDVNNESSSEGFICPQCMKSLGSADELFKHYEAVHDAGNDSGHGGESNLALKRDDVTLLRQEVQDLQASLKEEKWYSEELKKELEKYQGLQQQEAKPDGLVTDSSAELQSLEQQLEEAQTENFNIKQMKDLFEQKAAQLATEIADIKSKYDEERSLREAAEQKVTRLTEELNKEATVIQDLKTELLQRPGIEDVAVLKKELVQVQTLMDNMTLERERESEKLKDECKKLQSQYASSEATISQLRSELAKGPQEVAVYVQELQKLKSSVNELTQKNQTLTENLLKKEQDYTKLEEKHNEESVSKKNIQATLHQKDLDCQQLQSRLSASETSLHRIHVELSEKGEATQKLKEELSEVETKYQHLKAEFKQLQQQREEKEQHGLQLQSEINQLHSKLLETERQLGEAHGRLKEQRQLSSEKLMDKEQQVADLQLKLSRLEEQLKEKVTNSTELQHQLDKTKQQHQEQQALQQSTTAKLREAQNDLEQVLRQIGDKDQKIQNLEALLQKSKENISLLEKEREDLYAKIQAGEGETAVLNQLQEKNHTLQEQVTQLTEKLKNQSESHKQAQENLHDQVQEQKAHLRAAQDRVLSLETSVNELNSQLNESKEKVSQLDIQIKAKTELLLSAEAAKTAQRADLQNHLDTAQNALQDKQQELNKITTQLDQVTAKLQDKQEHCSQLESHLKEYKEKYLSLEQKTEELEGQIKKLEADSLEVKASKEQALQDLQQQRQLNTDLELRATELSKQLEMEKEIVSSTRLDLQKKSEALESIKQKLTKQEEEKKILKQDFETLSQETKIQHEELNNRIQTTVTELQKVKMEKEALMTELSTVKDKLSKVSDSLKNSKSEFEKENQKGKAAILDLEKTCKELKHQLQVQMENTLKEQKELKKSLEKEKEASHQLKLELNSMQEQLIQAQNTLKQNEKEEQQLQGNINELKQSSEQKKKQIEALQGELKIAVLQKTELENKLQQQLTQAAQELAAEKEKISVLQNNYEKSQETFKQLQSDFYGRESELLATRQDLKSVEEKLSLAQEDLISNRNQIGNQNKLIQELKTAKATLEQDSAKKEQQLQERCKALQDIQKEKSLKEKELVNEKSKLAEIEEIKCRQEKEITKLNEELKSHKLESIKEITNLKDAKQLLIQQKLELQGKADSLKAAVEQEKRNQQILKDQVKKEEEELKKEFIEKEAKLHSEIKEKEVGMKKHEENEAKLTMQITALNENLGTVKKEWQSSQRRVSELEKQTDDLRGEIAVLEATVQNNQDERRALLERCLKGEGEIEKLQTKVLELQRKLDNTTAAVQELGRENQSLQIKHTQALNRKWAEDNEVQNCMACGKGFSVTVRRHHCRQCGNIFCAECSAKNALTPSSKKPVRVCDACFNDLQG

Experiments:
[1] = target: T1, Stx6 and Stx13 together in one liposome (Rattus norvegicus) (UniProt Q63635+G3V7P1); assay: recruitment to proteoliposomes, immunoblot; SNARE-containing proteoliposomes incubated with HeLa cytosol (cell-free supernatant) 30 min at 37 °C; unbound protein separated by a flotation gradient or liposomes captured on streptavidin Dynabeads (methods); liposome fraction immunoblotted; protein-free liposomes as control; only the target purified
T1 sequence 1: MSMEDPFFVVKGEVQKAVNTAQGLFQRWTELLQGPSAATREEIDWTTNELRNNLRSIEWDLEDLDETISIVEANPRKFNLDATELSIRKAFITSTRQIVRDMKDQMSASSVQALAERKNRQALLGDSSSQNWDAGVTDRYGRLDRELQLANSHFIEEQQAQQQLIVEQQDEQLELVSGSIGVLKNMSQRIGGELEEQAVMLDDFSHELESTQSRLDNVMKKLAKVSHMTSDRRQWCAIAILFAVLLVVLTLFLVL
T1 sequence 2: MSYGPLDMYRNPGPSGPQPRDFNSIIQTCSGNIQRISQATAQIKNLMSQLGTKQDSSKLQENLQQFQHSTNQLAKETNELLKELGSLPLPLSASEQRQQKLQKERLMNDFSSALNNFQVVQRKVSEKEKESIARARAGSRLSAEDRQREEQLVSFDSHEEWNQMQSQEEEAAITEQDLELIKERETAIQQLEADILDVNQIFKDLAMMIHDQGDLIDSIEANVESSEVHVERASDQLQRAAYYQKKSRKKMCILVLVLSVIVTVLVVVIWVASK

[2] = target: T2, syntaxin 13 (Stx13), reconstituted in liposomes (Rattus norvegicus) (UniProt G3V7P1); assay: as above
T2 sequence: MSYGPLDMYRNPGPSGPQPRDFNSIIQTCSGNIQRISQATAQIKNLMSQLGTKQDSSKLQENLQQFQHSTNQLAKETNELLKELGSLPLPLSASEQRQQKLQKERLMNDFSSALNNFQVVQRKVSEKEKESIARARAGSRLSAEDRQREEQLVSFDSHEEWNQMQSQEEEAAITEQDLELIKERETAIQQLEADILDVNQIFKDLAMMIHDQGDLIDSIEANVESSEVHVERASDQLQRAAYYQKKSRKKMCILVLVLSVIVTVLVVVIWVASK

[3] = target: T3, syntaxin 6 (Stx6), full-length, reconstituted in liposomes (Rattus norvegicus) (UniProt Q63635); assay: as above
T3 sequence: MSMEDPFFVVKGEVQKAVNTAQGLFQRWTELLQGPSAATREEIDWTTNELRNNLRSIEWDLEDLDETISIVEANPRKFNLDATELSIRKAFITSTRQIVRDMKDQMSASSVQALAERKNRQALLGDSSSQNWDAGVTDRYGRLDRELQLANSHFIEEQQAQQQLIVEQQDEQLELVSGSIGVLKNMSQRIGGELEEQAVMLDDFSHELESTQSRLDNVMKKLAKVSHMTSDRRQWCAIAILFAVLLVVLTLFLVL

[4] = target: T4, syntaxin 13 (Stx13), HeLa cells (human (endogenous in HeLa)) (UniProt Q86Y82); assay: co-IP; endogenous SNAREs (Stx6, Stx13, Stx16, Stx4) immunoprecipitated from HeLa detergent extracts; immunoblot for Vps13B
T4 sequence: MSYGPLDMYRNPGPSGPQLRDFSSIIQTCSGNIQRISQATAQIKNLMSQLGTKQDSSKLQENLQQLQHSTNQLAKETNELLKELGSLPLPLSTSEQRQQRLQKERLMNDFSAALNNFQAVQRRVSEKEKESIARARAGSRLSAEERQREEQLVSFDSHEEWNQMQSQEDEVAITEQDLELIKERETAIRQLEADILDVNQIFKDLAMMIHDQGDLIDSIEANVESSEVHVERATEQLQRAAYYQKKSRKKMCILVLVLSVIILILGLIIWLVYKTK

[5] = target: T5, syntaxin 16 (Stx16), HeLa cells (human (endogenous in HeLa)) (UniProt O14662); assay: as above
T5 sequence: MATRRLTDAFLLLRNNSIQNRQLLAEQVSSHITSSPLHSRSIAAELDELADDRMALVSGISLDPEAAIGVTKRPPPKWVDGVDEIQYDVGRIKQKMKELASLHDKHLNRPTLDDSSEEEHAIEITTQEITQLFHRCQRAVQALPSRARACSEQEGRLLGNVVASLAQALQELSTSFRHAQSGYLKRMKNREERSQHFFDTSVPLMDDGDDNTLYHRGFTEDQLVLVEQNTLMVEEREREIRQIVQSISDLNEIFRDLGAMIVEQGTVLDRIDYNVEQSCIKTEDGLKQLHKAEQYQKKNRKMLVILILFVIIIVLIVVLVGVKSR

[6] = target: syntaxin 4 (Stx4), HeLa cells (human (endogenous in HeLa)) (UniProt Q12846); assay: as above
[7] = target: T6, syntaxin 6 (Stx6), HeLa cells (human (endogenous in HeLa)) (UniProt O43752); assay: as above
T6 sequence: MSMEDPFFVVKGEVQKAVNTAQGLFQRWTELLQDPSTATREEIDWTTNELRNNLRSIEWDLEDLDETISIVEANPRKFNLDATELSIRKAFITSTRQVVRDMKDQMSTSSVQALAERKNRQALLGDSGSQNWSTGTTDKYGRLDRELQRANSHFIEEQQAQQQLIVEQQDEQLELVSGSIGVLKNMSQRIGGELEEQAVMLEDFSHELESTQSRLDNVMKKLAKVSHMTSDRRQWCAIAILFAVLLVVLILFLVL

[8] = target: Vps13B (human (endogenous in HeLa)) (UniProt Q7Z7G8); assay: co-IP; endogenous Vps13B immunoprecipitated from detergent extracts of HeLa cells (1% Triton X-100, 150 mM NaCl); immunoblot for SNAREs
[9] = target: T6, syntaxin 6 (Stx6), HeLa cells (human (endogenous in HeLa)); assay: co-IP; co-immunoprecipitation of Stx6 and Vps51 (Supplementary Fig. 3a); lysis buffer 50 mM Tris-HCl pH 7.4, 150 mM NaCl, 1% Triton X-100; antibody and bait not given
[10] = target: T7, N-terminally truncated syntaxin 6 (ΔN-Stx6, residues 169–255), reconstituted in liposomes (Rattus norvegicus) (UniProt Q63635); assay: recruitment to proteoliposomes, immunoblot; SNARE-containing proteoliposomes incubated with HeLa cytosol (cell-free supernatant) 30 min at 37 °C; unbound protein separated by a flotation gradient or liposomes captured on streptavidin Dynabeads (methods); liposome fraction immunoblotted; protein-free liposomes as control; only the target purified
T7 sequence: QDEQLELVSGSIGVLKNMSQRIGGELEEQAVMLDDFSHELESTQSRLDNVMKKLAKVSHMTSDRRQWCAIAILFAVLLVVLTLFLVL

[11] = target: T3, syntaxin 6 (Stx6), full-length, reconstituted in liposomes (Rattus norvegicus); assay: as above; remark: listed apart in the source

In the case of “EEA1 (early endosome antigen 1) (from UniProt Q15075 1-1411)”, the binding [1] is reported as “no binding”, the binding [2] is reported as “no binding” and the binding [3] is reported as “no binding”.

Vps13B (from UniProt Q7Z7G8-2 1-3997) was tested, and the binding [4] was “binds”, the binding [5] was “no binding” and the binding [6] was “no binding”. For the same molecule, the binding [7] was “binds” and the binding [1] was “binds”.

B1: syntaxin 13 (Stx13), HeLa cells (protein, UniProt Q86Y82 1-276)
chain: MSYGPLDMYRNPGPSGPQLRDFSSIIQTCSGNIQRISQATAQIKNLMSQLGTKQDSSKLQENLQQLQHSTNQLAKETNELLKELGSLPLPLSTSEQRQQRLQKERLMNDFSAALNNFQAVQRRVSEKEKESIARARAGSRLSAEERQREEQLVSFDSHEEWNQMQSQEDEVAITEQDLELIKERETAIRQLEADILDVNQIFKDLAMMIHDQGDLIDSIEANVESSEVHVERATEQLQRAAYYQKKSRKKMCILVLVLSVIILILGLIIWLVYKTK
In the case of B1, the binding [8] is reported as “binds”.

B2: Vps51 (protein, UniProt Q9UID3 1-782)
chain: MAAAAAAGPSPGSGPGDSPEGPEGEAPERRRKAHGMLKLYYGLSEGEAAGRPAGPDPLDPTDLNGAHFDPEVYLDKLRRECPLAQLMDSETDMVRQIRALDSDMQTLVYENYNKFISATDTIRKMKNDFRKMEDEMDRLATNMAVITDFSARISATLQDRHERITKLAGVHALLRKLQFLFELPSRLTKCVELGAYGQAVRYQGRAQAVLQQYQHLPSFRAIQDDCQVITARLAQQLRQRFREGGSGAPEQAECVELLLALGEPAEELCEEFLAHARGRLEKELRNLEAELGPSPPAPDVLEFTDHGGSGFVGGLCQVAAAYQELFAAQGPAGAEKLAAFARQLGSRYFALVERRLAQEQGGGDNSLLVRALDRFHRRLRAPGALLAAAGLADAATEIVERVARERLGHHLQGLRAAFLGCLTDVRQALAAPRVAGKEGPGLAELLANVASSILSHIKASLAAVHLFTAKEVSFSNKPYFRGEFCSQGVREGLIVGFVHSMCQTAQSFCDSPGEKGGATPPALLLLLSRLCLDYETATISYILTLTDEQFLVQDQFPVTPVSTLCAEARETARRLLTHYVKVQGLVISQMLRKSVETRDWLSTLEPRNVRAVMKRVVEDTTAIDVQVGLLYEEGVRKAQSSDSSKRTFSVYSSSRQQGRYAPSYTPSAPMDTNLLSNIQKLFSERIDVFSPVEFNKVSVLTGIIKISLKTLLECVRLRTFGRFGLQQVQVDCHFLQLYLWRFVADEELVHLLLDEVVASAALRCPDPVPMEPSVVEVICERG
B2 was tested, and the binding [9] was “binds”, the binding [10] was “no binding” and the binding [11] was “binds”.

B3: syntaxin 6 (Stx6), HeLa cells (protein, UniProt O43752 1-255)
chain: MSMEDPFFVVKGEVQKAVNTAQGLFQRWTELLQDPSTATREEIDWTTNELRNNLRSIEWDLEDLDETISIVEANPRKFNLDATELSIRKAFITSTRQVVRDMKDQMSTSSVQALAERKNRQALLGDSGSQNWSTGTTDKYGRLDRELQRANSHFIEEQQAQQQLIVEQQDEQLELVSGSIGVLKNMSQRIGGELEEQAVMLEDFSHELESTQSRLDNVMKKLAKVSHMTSDRRQWCAIAILFAVLLVVLILFLVL
For B3, the binding [8] was “binds”.

B4: VAMP4, HeLa cells (protein, UniProt O75379 1-141)
chain: MPPKFKRHLNDDDVTGSVKSERRNLLEDDSDEEEDFFLRGPSGPRFGPRNDKIKHVQNQVDEVIDVMQENITKVIERGERLDELQDKSESLSDNATAFSNRSKQLRRQMWWRGCKIKAIMALVAAILLLVIIILIVMKYRT
B4 was tested, and the binding [8] was “no binding”.
